Source: the supplement of paper PMC8728848
The list shows a part of the results.

Tests used:
Assay in all cases: glycan array binding signal (z-score within array); higher = stronger binding
Settings in all cases: glycan notation: IUPAC condensed, linker removed
[1] = target: Gal(b1-4)GlcNAc(b1-2)Man(a1-6)Man(b1-4)GlcNAc(b1-4)GlcNAc
In short: (§1)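 Glycan array data came from 3228 arrays in the Consortium for Functional Glycomics database, and only arrays with an available protein sequence were kept. Glycan names were put into IUPAC-condensed notation, and columns mapping to the same glycan were averaged. The binding signal is a within-array Z-score, averaged across arrays of one protein sequence run at different concentrations or buffers and across linkers. A negative Z-score can be read as non-binding.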

[2] = target: Gal(b1-4)GlcNAc(b1-2)Man(a1-6)[GlcNAc(b1-2)Man(a1-3)]Man(b1-4)GlcNAc(b1-4)GlcNAc
In short: as §1

[3] = target: Gal(b1-4)GlcNAc(b1-2)Man(a1-6)[Man(a1-3)]Man(b1-4)GlcNAc(b1-4)GlcNAc
In short: as §1

[4] = target: Gal(b1-4)GlcNAc(b1-2)[Gal(b1-4)GlcNAc(b1-4)]Man(a1-3)[Gal(b1-4)GlcNAc(b1-2)Man(a1-6)]Man(b1-4)GlcNAc(b1-4)GlcNAc
In short: as §1

[5] = target: Gal(b1-4)GlcNAc(b1-2)[Gal(b1-4)GlcNAc(b1-4)]Man(a1-3)[Gal(b1-4)GlcNAc(b1-2)[Gal(b1-4)GlcNAc(b1-6)]Man(a1-6)]Man(b1-4)GlcNAc(b1-4)GlcNAc
In short: as §1

[6] = target: Gal(b1-4)GlcNAc(b1-2)[Gal(b1-4)GlcNAc(b1-4)]Man(a1-3)[GlcNAc(b1-4)][Gal(b1-4)GlcNAc(b1-2)Man(a1-6)]Man(b1-4)GlcNAc(b1-4)GlcNAc
In short: as §1

[7] = target: Gal(b1-4)GlcNAc(b1-2)[Gal(b1-4)GlcNAc(b1-4)]Man(a1-3)[GlcNAc(b1-4)][Gal(b1-4)GlcNAc(b1-2)[Gal(b1-4)GlcNAc(b1-6)]Man(a1-6)]Man(b1-4)GlcNAc(b1-4)GlcNAc
In short: as §1

[8] = target: Gal(b1-4)GlcNAc(b1-2)[Gal(b1-4)GlcNAc(b1-6)]Man(a1-6)[Gal(b1-4)GlcNAc(b1-2)Man(a1-3)]Man(b1-4)GlcNAc(b1-4)GlcNAc
In short: as §1

[9] = target: Gal(b1-4)GlcNAc(b1-2)[Gal(b1-4)GlcNAc(b1-6)]Man(a1-6)[Gal(b1-4)GlcNAc(b1-2)Man(a1-3)]Man(b1-4)GlcNAc(b1-4)[Fuc(a1-6)]GlcNAc
In short: as §1

[10] = target: Gal(b1-4)GlcNAc(b1-2)[Gal(b1-4)GlcNAc(b1-6)]Man(a1-6)[GlcNAc(b1-4)][Gal(b1-4)GlcNAc(b1-2)Man(a1-3)]Man(b1-4)GlcNAc(b1-4)GlcNAc
In short: as §1

[11] = target: Gal(b1-4)GlcNAc(b1-2)[Gal(b1-4)GlcNAc(b1-6)]Man(a1-6)[GlcNAc(b1-4)][Gal(b1-4)GlcNAc(b1-2)[Gal(b1-4)GlcNAc(b1-4)]Man(a1-3)]Man(b1-4)GlcNAc(b1-4)[Fuc(a1-6)]GlcNAc
In short: as §1

[12] = target: Gal(b1-4)GlcNAc(b1-3)Gal(b1-3)GalNAc
In short: as §1

[13] = target: Gal(b1-4)GlcNAc(b1-3)Gal(b1-3)GlcNAc
In short: as §1

[14] = target: Gal(b1-4)GlcNAc(b1-3)Gal(b1-4)Glc
In short: as §1

[15] = target: Gal(b1-4)GlcNAc(b1-3)Gal(b1-4)GlcNAc
In short: as §1

[16] = target: Gal(b1-4)GlcNAc(b1-3)Gal(b1-4)GlcNAc(b1-2)Man(a1-3)[Gal(b1-4)GlcNAc(b1-3)Gal(b1-4)GlcNAc(b1-2)Man(a1-6)]Man(b1-4)GlcNAc(b1-4)GlcNAc
In short: as §1

[17] = target: Gal(b1-4)GlcNAc(b1-3)Gal(b1-4)GlcNAc(b1-2)Man(a1-3)[Gal(b1-4)GlcNAc(b1-3)Gal(b1-4)GlcNAc(b1-2)Man(a1-6)]Man(b1-4)GlcNAc(b1-4)[Fuc(a1-6)]GlcNAc
In short: as §1

[18] = target: Gal(b1-4)GlcNAc(b1-3)Gal(b1-4)GlcNAc(b1-2)[Gal(b1-4)GlcNAc(b1-3)Gal(b1-4)GlcNAc(b1-6)]Man(a1-6)[Gal(b1-4)GlcNAc(b1-3)Gal(b1-4)GlcNAc(b1-2)Man(a1-3)]Man(b1-4)GlcNAc(b1-4)GlcNAc
In short: as §1

[19] = target: Gal(b1-4)GlcNAc(b1-3)Gal(b1-4)GlcNAc(b1-2)[Gal(b1-4)GlcNAc(b1-3)Gal(b1-4)GlcNAc(b1-6)]Man(a1-6)[Gal(b1-4)GlcNAc(b1-3)Gal(b1-4)GlcNAc(b1-2)Man(a1-3)]Man(b1-4)GlcNAc(b1-4)[Fuc(a1-6)]GlcNAc
In short: as §1

[20] = target: Gal(b1-4)GlcNAc(b1-3)Gal(b1-4)GlcNAc(b1-3)Gal(b1-4)GlcNAc
In short: as §1

[21] = target: Gal(b1-4)GlcNAc(b1-3)Gal(b1-4)GlcNAc(b1-3)Gal(b1-4)GlcNAc(b1-2)Man(a1-3)[Gal(b1-4)GlcNAc(b1-3)Gal(b1-4)GlcNAc(b1-3)Gal(b1-4)GlcNAc(b1-2)Man(a1-6)]Man(b1-4)GlcNAc(b1-4)GlcNAc
In short: as §1

[22] = target: Gal(b1-4)GlcNAc(b1-3)Gal(b1-4)GlcNAc(b1-3)Gal(b1-4)GlcNAc(b1-2)Man(a1-3)[Gal(b1-4)GlcNAc(b1-3)Gal(b1-4)GlcNAc(b1-3)Gal(b1-4)GlcNAc(b1-2)Man(a1-6)]Man(b1-4)GlcNAc(b1-4)[Fuc(a1-6)]GlcNAc
In short: as §1

B1: UDA (Urtica dioica), P11218 (protein)
chain: MMMRFLSAVVIMSSAMAVGLVSAQRCGSQGGGGTCPALWCCSIWGWCGDSEPYCGRTCENKCWSGERSDHRCGAAVGNPPCGQDRCCSVHGWCGGGNDYCSGSKCQYRCSSSVRGPRVALSGNSTANSIGNVVVTEPLFDQMFSHRKDCPSQGFYSYHSFLVAAESFPAFGTIGDVATRKREVAAFLAHISQATSGERSDVENPHAWGLCHINTTTVTENDFCTSSDWPCAAGKKYSPRGPIQLTHNFNYGLAGQAIGEDLIQNPDLVEKDPIISFKTALWFWMSQHDNKPSCHDIVLNANSAANRIPNKGVIGNIISRAFGHDDFAVRSSSIGFYKRYCDMLGVSYGHDLKYWFDNTPSSEFQRIQMRVAA
In the case of B1, the “glycan array binding signal (z-score)” value [1] is reported as -0.165, the “glycan array binding signal (z-score)” value [2] is reported as -0.175 and the “glycan array binding signal (z-score)” value [3] is reported as -0.153. For the same binder, the “glycan array binding signal (z-score)” value [4] was 0.22, the “glycan array binding signal (z-score)” value [5] was 0.393 and the “glycan array binding signal (z-score)” value [6] was -0.178. The “glycan array binding signal (z-score)” value [7] was -0.17, the “glycan array binding signal (z-score)” value [8] was -0.058 and the “glycan array binding signal (z-score)” value [9] was -0.17. The “glycan array binding signal (z-score)” value [10] was -0.17, the “glycan array binding signal (z-score)” value [11] was -0.179 and the “glycan array binding signal (z-score)” value [12] was -0.179. The “glycan array binding signal (z-score)” value [13] was -0.175, the “glycan array binding signal (z-score)” value [14] was -0.189 and the “glycan array binding signal (z-score)” value [15] was -0.069. The “glycan array binding signal (z-score)” value [16] was -0.033, the “glycan array binding signal (z-score)” value [17] was 0.015 and the “glycan array binding signal (z-score)” value [18] was -0.126. For the same binder, the “glycan array binding signal (z-score)” value [19] was -0.147, the “glycan array binding signal (z-score)” value [20] was 0.075 and the “glycan array binding signal (z-score)” value [21] was 0.012. For the same binder, the “glycan array binding signal (z-score)” value [22] was 0.008.
